Laboratory results: the antibiotic and cytotoxicity screens of Wong et al. (2023)
Some of the results follow.

Columns and labels:
HSkMC = human skeletal muscle cells; experiment: cytotoxicity call (relative viability < 0.9); settings: 10 µM
HepG2 = experiment: cytotoxicity call (relative viability < 0.9); settings: 10 µM
S. aureus RN4220 = experiment: growth inhibition call (relative growth <= 0.2); settings: 50 µM

| Compound | cytotoxicity call (HSkMC) | cytotoxicity call (HepG2) | growth inhibition call (S. aureus RN4220) |
| --- | --- | --- | --- |
| C[C@H](CO)N1C[C@H](C)[C@H](CN(C)Cc2ccc(Oc3ccccc3)cc2)Oc2ccc(NC(=O)C3CC3)cc2C1=O | inactive | inactive | inactive |
| CNC[C@@H]1OCCCC[C@H](C)Oc2ccc(NS(=O)(=O)c3cn(C)cn3)cc2C(=O)N([C@@H](C)CO)C[C@@H]1C | inactive | inactive | inactive |
| CC(C)NCC(O)COc1cccc2ccccc12.Cl (configuration not stated) | inactive | active | inactive |
| Cc1ccc(S(=O)(=O)N2C[C@H](O)COC[C@@H]3O[C@H](CC(=O)N[C@@H]4CCN(Cc5ccccc5)C4)CC[C@H]32)cc1 | inactive | inactive | inactive |
| COc1cc(CN2CCC(C(=O)N[C@@H](c3ccc(F)cc3)c3ccc4ccccc4n3)CC2)cc(OC)c1 | inactive | active | inactive |
| COc1ccccc1-c1cccc(-c2nc(C(=O)NCc3ccncc3)cc3c2[C@H](CCO)N([S@@](=O)C(C)(C)C)C3)c1 | active | inactive | inactive |
| COc1cccc(NC(=O)N2C[C@@H](O)COC[C@@H]3O[C@H](CC(=O)NCc4ccccc4F)CC[C@H]32)c1 | inactive | inactive | inactive |
| C[C@@H]1CCCCO[C@@H](CN(C)C(=O)CCC(F)(F)F)[C@H](C)CN([C@@H](C)CO)C(=O)c2cc(NS(=O)(=O)c3cccs3)ccc2O1 | inactive | inactive | inactive |
| C[C@H]1CN([C@@H](C)CO)C(=O)Cc2cc(NS(=O)(=O)c3cn(C)cn3)ccc2O[C@H]1CN(C)Cc1ccc2c(c1)OCO2 | inactive | inactive | inactive |
| C[C@@H]1CN([C@H](C)CO)C(=O)c2ccccc2-c2ccccc2CO[C@@H]1CN(C)C(=O)Nc1cccc(C(F)(F)F)c1 | inactive | inactive | inactive |
| C[C@@H]1CCCCO[C@H](CN(C)C)[C@@H](C)CN([C@H](C)CO)C(=O)c2cc(NC(=O)Nc3ccc(C(F)(F)F)cc3)ccc2O1 | inactive | inactive | inactive |
| Cc1cccc(NC(=O)C[C@H]2NCCNC2=O)c1 | inactive | inactive | inactive |
| C[C@H](CO)N1C[C@H](C)[C@H](CN(C)C(=O)CCN2CCCCC2)Oc2ncc(C#Cc3ccccn3)cc2C1=O | inactive | inactive | inactive |
| C[C@@H]1CCCCO[C@@H](CN(C)C(=O)Nc2ccc(F)cc2)[C@H](C)CN([C@H](C)CO)C(=O)c2cc(NS(=O)(=O)c3ccc(F)cc3)ccc2O1 | inactive | inactive | inactive |
